{"source": "paper PMC12136788", "binders": {"B1": {"name": "71073978_71084756_593_CDS_ENSMUSG00000027012_ENSMUST00000112142|mouse|control|control (ssRNA)", "RNA": "GGGAGUUCUACAGUCCGACGAUCCUCCUCCUCAUCUUCUUUGGGUUGAGCUGUAACCGGGGUCUGAGUUUCCUUUGUGUAUGUGACGAUUUCUCGAGGGGGAAAGUCAACUUGAGUAAUUUUGGCCAUUCCAAGUUUAAUAGGCAACAGAGGAUUGAGCAUCA"}, "B2": {"name": "64993253_64993373_409_3pUTR_ENSMUSG00000029920_ENSMUST00000031984|mouse|control|control (ssRNA)", "RNA": "GGGAGUUCUACAGUCCGACGAUCCUUCAGCACUAAGAGAAAUUGGUGACGAAGGACGGGCCUGGGAGGGCUGAGGGGCUGCUUCGGGUGCUUCCUCAAUCUUACUCCUUUUCUCAAAGCGAAAACGGUCCAAGUUGAAAAGAUCAACAGAGGAUUGAGCAUCA"}, "B3": {"name": "chr11:29608675:29608676:+_ENSMUSG00000020458_ENSMUST00000102843|mus_hu|motif|central (ssRNA)", "RNA": "GGGAGUUCUACAGUCCGACGAUCUUCUGUAUCGGAAGGAAGUUUUUUCUCAGCUUCUUUCACAAGAACUUUGGGUUUAACGGUGCUCUCUAUCUCUGCUUGAGUGGCCAAAGCAGAAACAUCUGGAGGCAAUAAGAGCACCUUCAACAGAGGAUUGAGCAUCA"}, "B4": {"name": "chr5:67447025:67447026:+_ENSMUSG00000037736_ENSMUST00000038188|mus_hu|motif|central (ssRNA)", "RNA": "GGGAGUUCUACAGUCCGACGAUCCUGCACCUAUAUGGAACCCACAUGCAAAGAACCCAUCUAGCAUGUAAUAAAUAAUCGCGGGCCAUACUCAAUAAGACACGGAAAAAUUAUUGCUUACAUAACAGAAAAACAUCUACUUGACAACAGAGGAUUGAGCAUCA"}, "B5": {"name": "10517792_10517912_4758_3pUTR_ENSG00000160049_ENST00000377038|human|control|control (ssRNA)", "RNA": "GGGAGUUCUACAGUCCGACGAUCCUUAGACUAACUGAGAGGUUAGACUCAAGCCGGUUUGUCUCACUCCCAAAUCCACAGGACAUUUUCCAUUAUCCACCCAGUUCAGCCGCUUGGUGGGCUUGCUUCAAGUACAGAAUAUUACAACAGAGGAUUGAGCAUCA"}, "B6": {"name": "chr11:77340908:77340909:-_ENSG00000074201_ENST00000525064|hu_hu|hu_hu_hu_mus_True|18_48 (ssRNA)", "RNA": "GGGAGUUCUACAGUCCGACGAUCGUUUGGAUCCCUGGACACCGCAUGUAAACUAAUGGUGGGGUAUUCCAGUGAGAAUCCUAAUCCAGAGCCAUCUAACCAGGACAGGCGGCUCUCAGCGAUGUAAAGCGUGCCGGUGCCGAGCAACAGAGGAUUGAGCAUCA"}}, "note": "The other results are listed elsewhere or left out.", "data": [{"biological_target": "T1, UNK ZnF1-3 (human, UniProt Q9C0B0 31-174)", "T1 sequence": "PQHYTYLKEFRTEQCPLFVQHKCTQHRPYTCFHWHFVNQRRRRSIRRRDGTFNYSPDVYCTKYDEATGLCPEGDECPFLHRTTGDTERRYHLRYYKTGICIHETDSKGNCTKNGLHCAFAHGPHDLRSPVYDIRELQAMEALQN", "assay": "nsRBNS (natural sequence RNA bind-n-seq); RBNS binding buffer (assumed for nsRBNS): 25 mM Tris pH 7.5, 150 mM KCl, 3 mM MgCl2, 0.01% Triton X-100, 500 ug/ml BSA, 20 U/ml SUPERase-In, 4 C; UNK is unkempt and MSI1 is Musashi-1; names of the RNAs are library labels; protein concentration not given here; high values mean tight binding", "units": {"binding signal": "enrichment R"}, "values": [{"binder": "B1", "binding signal": 1.01}, {"binder": "B2", "binding signal": 1.21}, {"binder": "B3", "binding signal": 0.249}, {"binder": "B4", "binding signal": 1.52}, {"binder": "B5", "binding signal": 0.866}, {"binder": "B6", "binding signal": 0.941}]}]}
